Values marked as one replicate rest on one cluster of the flow cell; about a third of the high ones do not repeat.
Tested on: ATP
Assay: switch fluorescence ratio, 500 uM ATP over buffer (Cy3 cluster intensity, sum of 5 cycles each) (fold (ratio)); higher = stronger signal-on switching upon ATP binding; sequences stand for … in TCGTCGGCAGCGTCAGATGTGTATAAGAGACAGTTTTTTTTTTTTTTTTTTTTTTTTT…TC
Details: aptamer strand: ATP DNA aptamer (quencher-CACCTGGGGGAGTATTGCGGAGGAAGG + anchor), 100 nM annealed; ATP concentration: 500 uM; one replicate
Outline: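 Five buffer/ATP imaging cycles were run on Cy3-labelled switching-strand clusters on a modified Illumina MiSeq flow-cell, with NaOH stripping and re-annealing between cycles. In each cycle, clusters annealed to 100 nM quencher-labelled ATP aptamer were imaged in selection buffer, then after 15 min with 500 uM ATP at 22 °C. Per cluster, the fluorescence ratio is summed target-cycle over summed buffer-cycle Cy3 intensity, averaged per switch-domain sequence. Only clusters within 100-1000 RFU were kept.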
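Note: ATP exposure 15 min at 22 °C before imaging.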

Row | Sequence | switch fluorescence ratio
1 | TCTTCCTTAC | 2.64
2 | TCTTCGAAGC | 0.963
3 | TCTTCGATTA | 1
4 | TCTTCGGGAG | 1.09
5 | TCTTGACCTG | 1.01
6 | TCTTGCGGGC | 1.04
7 | TCTTGGACCA | 0.996
8 | TCTTGGGTTC | 0.992
9 | TCTTGTAAAC | 1.03
10 | TCTTGTCAAC | 1.03
11 | TCTTGTGAA | 1.01
12 | TCTTGTTCAT | 1.02
13 | TCTTTAACAG | 1.03
14 | TCTTTATAAG | 0.951
15 | TCTTTCCATG | 1.03
16 | TCTTTCGATC | 1.05
17 | TCTTTGATAA | 0.997
18 | TCTTTTAATA | 0.984
19 | TCTTTTGAA | 0.954
20 | TGAAAAATAA | 0.98
21 | TGAAAAATCG | 1
22 | TGAAAACTCT | 1.02
23 | TGAAAAGATT | 0.964
24 | TGAAAGAATA | 1.03
25 | TGAAAGTCTT | 1.08
26 | TGAAATCCTA | 0.987

Row | Sequence | switch fluorescence ratio
27 | TGAAATGAGC | 1.04
28 | TGAAATTGCT | 1.02
29 | TGAACACTGC | 1.06
30 | TGAACATTAA | 1
31 | TGAACCGTGC | 1.19
32 | TGAACCTTGG | 1.02
33 | TGAACGAGGC | 0.969
34 | TGAACGGGAA | 1.05
35 | TGAACGTTAC | 1.6
36 | TGAACTAGCT | 0.98
37 | TGAACTGGGG | 0.967
38 | TGAAGATTT | 1
39 | TGAAGCGCGG | 0.986
40 | TGAAGCTTAG | 1.07
41 | TGAAGGATAT | 1
42 | TGAAGGGAGT | 0.933
43 | TGAAGTTAAA | 1.02
44 | TGAATCGAAT | 0.972
45 | TGAATGGAGC | 0.973
46 | TGAATTACTG | 1.06
47 | TGAATTGTGT | 0.953
48 | TGAATTTGC | 0.969
49 | TGACAACGAG | 1.03
50 | TGACACGGCA | 1.11
51 | TGACAGCAAC | 2.69
52 | TGACAGGTTA | 0.945

Row | Sequence | switch fluorescence ratio
53 | TGACCAATCC | 1.51
54 | TGACCAATTG | 0.975
55 | TGACCACTTG | 1.03
56 | TGACCCCTTC | 1.06
57 | TGACCCGACC | 1.33
58 | TGACCTATGA | 1.18
59 | TGACCTCGTT | 1.03
60 | TGACCTTAAG | 0.986
61 | TGACGAAAGG | 0.98
62 | TGACGACATG | 1.04
63 | TGACGAGACA | 1.08
64 | TGACGCGAGG | 1.18
65 | TGACGCGTTG | 0.983
66 | TGACGGATTG | 0.944
67 | TGACGGCGCG | 0.999
68 | TGACGGTTTT | 1.03
69 | TGACGTCCTG | 1.06
70 | TGACGTGATG | 0.988
71 | TGACTAAAGA | 0.978
72 | TGACTAGTCA | 1
73 | TGACTAGTGT | 1.02
74 | TGACTCATGT | 0.983
75 | TGACTCGCCA | 1.18
76 | TGACTCGGCA | 1.43
77 | TGACTGCCCA | 1.1
78 | TGAGAAAACA | 0.98

Row | Sequence | switch fluorescence ratio
79 | TGAGACACGT | 1
80 | TGAGACGGTT | 0.996
81 | TGAGACTTGA | 0.966
82 | TGAGAGCATT | 1.05
83 | TGAGAGGATA | 1.03
84 | TGAGATAGCG | 0.969
85 | TGAGATTCCG | 1.01
86 | TGAGCCTGTG | 0.956
87 | TGAGCGCTGT | 1.02
88 | TGAGCGTAGT | 1
89 | TGAGGAAATA | 1.07
90 | TGAGGAGCG | 0.951
91 | TGAGGAGTG | 0.994
92 | TGAGGCAAAA | 1.1
93 | TGAGGCCGAG | 0.985
94 | TGAGGGGCGT | 0.954
95 | TGAGGTACAT | 1.07
96 | TGAGGTTCAG | 0.958
97 | TGAGTAATAT | 1.78
98 | TGAGTACCTG | 0.976
99 | TGAGTCCAAG | 1.02
100 | TGAGTCGAGT | 0.957
101 | TGAGTGGTTT | 0.998

— the supplement of paper PMC10126150
